Self-cleavage data for 167 variants are collected here from the RNAGym collection of RNA variant scans (doi:10.1093/nar/gkz1192).

The source gives no read counts; variants with many changes may rest on few reads.

B1: CPEB3 Ribozyme (parent)
chain: UAACAGGGGGCCACAGCAGAAGCGUUCACGUCGCAGCCCCUGUCAGAUUCUGGUGAAUCUGCGAAUUCUGCUGUAUAUCUC

In the data set the parent is B1. The data set can be described thus: self-cleavage, relative activity (ratio to wild type); higher = more cleavage; in vitro, sequencing. The method in brief:
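CPEB3 self-cleaving ribozyme mutant libraries were made by rounds of error-prone PCR, barcoded, and transcribed in vitro with T7 RNA polymerase for 5 hours at 37°C. Cleavage occurred during transcription and a 15 min DNase I step before EDTA stop. RNAs were reverse transcribed with template switching and Illumina-sequenced, with DNA sequencing mapping barcodes to variants. Relative activity is the variant's cleaved/total read fraction divided by wild type's (minimum 5 reads), averaged across three batches.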
Regarding U1C U25C U49C, the self-cleavage amounted to 0.06.
Next, U1C U25C U26C U41A U74C: 0.06.
Consider U1C U25C U26C, for which the self-cleavage was 0.42.
For the variant U1C U25C A28U A45G U66C, the self-cleavage was found to be 0.36.
For the variant U1C G7U U51C A56U, the self-cleavage amounted to 0.1.
As to U1C C40A A64U, the self-cleavage worked out at 0.17.
With U1C U25A G36U U60C U72A U76A, the self-cleavage was 0.06.
The same measure for U1C G30A A35G: 0.27.
On to U1C C12A U41C U43A U49C A57G G63U, for which the self-cleavage was determined as 0.23.
With U1C G6A C40U U51C, the self-cleavage is 0.07.
Regarding U1C U25C U69C U80C, the self-cleavage stood at 0.28.
As to U1C C4U U25C C29U A45G, the self-cleavage is 0.09.
The same measure for U1C U25C C32U G33A: 0.21.
With U1C A45G U78A, the self-cleavage amounted to 0.79.
The same measure for U1C G6U C12A U26C U54C: 0.24; for U1C C40U A45U U48C U69C U78C: 0.05; for U1C G10A A35U: 0.21.
The same measure for U1C G7U A15G G30U U48C U58C A77U: 0.14; for U1C A57U A77U: 0.65.
In the case of U1C G6A A15U C23G U78C, the self-cleavage was 0.04.
Next, U1C G53U U67C: 0.24; U1C U25C A35G U78G: 0.25; U1C U25C A35G U78C: 0.4.
Take U1C C11A A13U U25A C39A U54A U69G: the self-cleavage was determined as 0.03.
With U1C C11U A35U, the self-cleavage was 0.32.
Turning to U1C G8U G24A U78C, the self-cleavage is 0.06.
Consider U1C C14U U69A, for which the self-cleavage came out at 0.69.
Take U1C G8A A18G A20U A35U: the self-cleavage came out at 0.14.
With U1C U25G G55A A56C, the self-cleavage is 0.12.
Next, U1C G19A C50U: 0.07.
As to U1C U25G A56G, the self-cleavage came out at 0.41.
Next, U1C C12A U26C U48C A65G G73U A75U: 0.02.
Next, U1C C37U U54A A56G: 0.52; U1C C27U A45U U51C U69C: 0.16.
Next, U1C C4U U26G: 0.68; U1C G8C A28G U67G: 0.05; U1C G16U U41C G52A U69G: 0.21.
Consider U1C C34U U67C U69C, for which the self-cleavage was found to be 0.06.
As to U1C G42C G52C A56G, the self-cleavage stood at 0.38.
With U1C G24A A64U U66G, the self-cleavage came to 0.22.
Take U1C G9A U25C: the self-cleavage came out at 0.06.
Turning to U1C C29U A45U A56G U60C C62U, the self-cleavage amounted to 0.07.
In the case of U1C G10A U69C, the self-cleavage is 0.13.
As to U1C C27U U41C U48C U69A, the self-cleavage was 0.16.
As to U1C C23G A35U U43G, the self-cleavage is 0.19.
U1C A45U U49C U72C U76C: the self-cleavage was determined as 0.15.
As to U1C C29U U43C A45G U69C, the self-cleavage turned out to be 0.15.
As for U1C G36A A47G A56U A57U, the self-cleavage came out at 0.16.
For U1C C11G U31C A45G U66C G73A, the self-cleavage was 0.06.
With U1C G7A A15G A21G U26C A57G U76A, the self-cleavage worked out at 0.03.
The same measure for U1C G63A U74C C81A: 1.13.
U1C G19U A21G A35G A65G U69A: the self-cleavage came out at 0.13.
In the case of U1C G52A A56U, the self-cleavage was determined as 1.02.
As for U1C G6U A47G A57U, the self-cleavage worked out at 0.09.
Take U1C C37A A47G U49A: the self-cleavage stood at 0.06.
Take U1C G6U U41C A56G: the self-cleavage came to 0.1.
Consider U1C U25G U69C, for which the self-cleavage is 0.23.
For the variant U1C C12G A13C U31C A57G U76A, the self-cleavage amounted to 0.47.
Next, U1C C12U C29U A35G U69C A75U: 0.14; U1C C37U U43C: 0.09.
Consider U1C G10A G70A G73A, for which the self-cleavage worked out at 0.32.
Consider U1C C14G U54C U60C U66C, for which the self-cleavage is 0.17.
With U1C C12U A15C A45G A57G U67A C79A, the self-cleavage was 0.16.
Take U1C C12U A65G: the self-cleavage was found to be 0.75.
Take U1C C14A C40U A45U U51A U60C U72C: the self-cleavage came out at 0.09.
In the case of U1C G9A C14U U41C A47G A57G, the self-cleavage was 0.52.
U1C C12U U31C U41C U67A: the self-cleavage was determined as 0.18.
For the variant U1C U25C U80A, the self-cleavage was found to be 0.43.
Take U1C G46U U74C: the self-cleavage turned out to be 0.18.
Take U1C G7U U26C U31A U58C U60C U78A: the self-cleavage came to 0.03.
On to U1C G7A A15U U43C, for which the self-cleavage stood at 0.06.
On to U1C A56U U69A, for which the self-cleavage stood at 0.29.
In the case of U1C C32U A35G U41A A45G U67C C71G, the self-cleavage was 0.02.
The same measure for U1C G46U U78A: 0.11.
On to U1C A64G U67C, for which the self-cleavage is 0.17.
As for U1C C12U A28G U31G, the self-cleavage came to 0.57.
Turning to U1C G16U U41G, the self-cleavage was determined as 0.06.
As for U1C A45U U54C U58A, the self-cleavage was found to be 0.09.
Next, U1C C32G U43C A64G U72A: 0.07.
U1C G16U A56U U60A U78C: the self-cleavage was found to be 0.06.
Next, U1C G6A U49C A64G U72C U80C: 0.16; U1C C32U A47G: 0.56; U1C G8A A15G: 0.05.
For the variant U1C C23G U26C A28U A64G U78C U80C, the self-cleavage amounted to 0.04.
For the variant U1C G7A A28C A65G U69A U72C, the self-cleavage is 0.04.
The same measure for U1C C12U A15U A20G C37U U60A: 0.03; for U1C C29U U41C U49C: 0.09.
Next, U1C A56C U78A: 0.4; U1C U25C A45G: 0.31.
The same measure for U1C C29U U48C U69A: 0.07; for U1C G22A U26A U31C A56G U69C: 0.07; for U1C A45G A77G: 0.9.
For the variant U1C A56G U80A, the self-cleavage worked out at 1.05.
On to U1C U25A U26C U60C A77G, for which the self-cleavage is 0.45.
Regarding U1C G30C A56G U60C A65G U69C A75G, the self-cleavage worked out at 0.04.
U1C G10A A21U: the self-cleavage was found to be 0.17.
On to U1C G6A A35C U51C A64G, for which the self-cleavage is 0.06.
Regarding U1C G19C U25C C38U U41C A45G, the self-cleavage came to 0.04.
In the case of U1C U25C A28U U41C U48C U66A U78A, the self-cleavage turned out to be 0.05.
For the variant U1C C23G C29U U41C U51C G63A U66A, the self-cleavage is 0.05.
Take U1C G19A A35G G73A: the self-cleavage stood at 1.18.
For the variant U1C G8A A15G C29U U41A G53C U80C, the self-cleavage is 0.04.
Take U1C A64U C71A: the self-cleavage came out at 0.19.
With U1C C12U U25A A35U U41G U58C A64U, the self-cleavage turned out to be 0.03.
With U1C U25C U41C U43C A57G U78C, the self-cleavage worked out at 0.
Regarding U1C C40A U41C, the self-cleavage came out at 0.08.
U1C C32U U74C: the self-cleavage stood at 0.41.
U1C G16A U25C A28G U74C: the self-cleavage worked out at 0.07.
Next, U1C G10A A18G: 0.34; U1C G30A U76A: 0.17; U1C C39U G63A: 0.64.
As for U1C A45G U69C A77G, the self-cleavage is 0.28.
Next, U1C C27U G33A: 0.06.
In the case of U1C G6A U69C, the self-cleavage was determined as 0.21.
On to U1C G16A U26A U49A, for which the self-cleavage was determined as 0.29.
For the variant U1C C12A U49C U60A U78C, the self-cleavage is 0.07.
For the variant U1C A56G A57G, the self-cleavage was 0.4.
Take U1C C34U G42A A45G: the self-cleavage came to 0.22.
The same measure for U1C A47G C50A A56G C62U A64G U67C: 0.07; for U1C G8A A20U U49C A64G: 0.04; for U1C C4A U26C A77U: 0.9.
Take U1C G7A A21G U25A U67A: the self-cleavage was 0.04.
In the case of U1C C17U U41C U74C U76C, the self-cleavage is 1.
The same measure for U1C C59G U72A: 0.18; for U1C G8A U60C U66G A77U: 0.19.
Turning to U1C C11A A28G U66C, the self-cleavage turned out to be 0.08.
As for U1C G7A A35U U54C U58A A77U, the self-cleavage amounted to 0.05.
As to U1C G9U A15U G16C U51A, the self-cleavage amounted to 0.05.
The same measure for U1C A45G U72C U78C: 0.8; for U1C G24C U72G: 0.27; for U1C G10A C62U: 0.03.
In the case of U1C G7U A21G, the self-cleavage came to 0.07.
Turning to U1C C40G A45U U60A, the self-cleavage came to 0.16.
With U1C C29U U72C, the self-cleavage was determined as 0.65.
U1C C11A U25C U26A A28G U80C: the self-cleavage was 0.04.
Take U1C A64U U78C: the self-cleavage is 0.13.
U1C C17A A18G A21G U49C A65U U80A: the self-cleavage was found to be 0.03.
With U1C C11U G24C C29A A35G U67C, the self-cleavage amounted to 0.08.
For the variant U1C G8A U49C A77U, the self-cleavage was determined as 0.04.
Turning to U1C G10U U78C, the self-cleavage was determined as 0.28.
As for U1C C40U A47G, the self-cleavage stood at 0.24.
On to U1C G9A C37A, for which the self-cleavage turned out to be 0.35.
The same measure for U1C C11G C23U A28G U60A U69C U74C: 0.04; for U1C G19A U48C: 0.25; for U1C C14G A47G U51A G61U U67C: 0.08.
Next, U1C G19U U54C U67C A75U: 0.09; U1C G7U C23G U26C U51A U78G: 0.04.
Turning to U1C G8A C39A U48G A77G C81A, the self-cleavage was 0.04.
Consider U1C C17A U60A U66C U69A U72A, for which the self-cleavage amounted to 0.04.
For U1C G8A A13G A21G U72C, the self-cleavage is 0.06.
In the case of U1C C23A A47U, the self-cleavage stood at 0.05.
The same measure for U1C C23G U25C U80C: 0.05.
The same measure for U1C G30U U31A A64U: 0.22; for U1C C12U A28U U60A U66C U72C A77G: 0.19.
Next, U1C G7A A18U: 0.27; U1C G6A U41A U43C A45G A47G: 0.06.
Consider U1C C40U U41G A57U U58C, for which the self-cleavage is 0.05.
Turning to U1C C14A A21G U43C A65G, the self-cleavage is 0.26.
The same measure for U1C U25A G36C U78C: 0.3.
For the variant U1C C11G A13C U25C U43C U76A, the self-cleavage was 0.36.
For U1C C12U U60A U72A, the self-cleavage was found to be 0.53.
As for U1C G8C A57U, the self-cleavage worked out at 0.37.
Consider U1C C27A A28G U49A, for which the self-cleavage amounted to 0.25.
On to U1C C27G U49A, for which the self-cleavage is 0.26.
The same measure for U1C C12U U31C A35G U69G U78A: 0.88; for U1C A56U U78A: 0.32; for U1C G8U A15U G16A U41C A77G: 0.06.
